IC50 is the fitted dose that halves viability relative to control wells, and lower means more sensitive; where the fit passes the top or lowest dose, that dose stands as a limit. AUC, from the same fit, is the share of area under the viability curve across the 256-fold dose range; values near 1 show little effect. For some assays here: Where the top dose is marked as inferred, it is not printed in the source and was worked back from the curve model. For some assays here: Where an entry number is given, a second screen of the drug exists; the two often differ.
Assays:
Assay in all cases: Viability of human cancer cell lines after 72 h of drug (GDSC screen)
[1] = compound: CN(NC(=O)CC(=O)NN(C)C(=S)c1ccccc1)C(=S)c1ccccc1 [Elesclomol]; settings: top dose 0.2 µM; top dose inferred
Protocol: (§1)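 Human cancer cell lines in 384-well plates, medium with 10% serum, drug for 72 h over a 256-fold dose range (nine 2-fold or five 4-fold steps up to the top dose). Adherent lines were fixed and stained with the nucleic acid dye Syto60, suspension lines read with resazurin; signal relative to control wells, capped at 0 and 100%. One two-parameter sigmoid per drug and line, fitted in a mixed model over all curves with the slope shared within a line.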

[2] = compound: O=C(/C=C/c1ccc(CN(CCO)CCc2c[nH]c3ccccc23)cc1)NO [LAQ824]; settings: top dose 1.024 µM; top dose inferred
Protocol: as §1

[3] = compound: Cc1ccc(NC(=O)c2ccc(CN3CCN(C)CC3)cc2)cc1Nc1nc(-c2cccnc2)cs1 [Masitinib]; settings: top dose 20 µM
Protocol: as §1

[4] = compound: CC/C(=C(\c1ccccc1)c1ccc(OCCN(C)C)cc1)c1ccccc1 [Tamoxifen]; settings: top dose 5 µM
Protocol: as §1

[5] = compound: O=C(Nc1ccc(OC(F)(F)F)cc1)c1sccc1NCc1ccnc2ccccc12 [OSI-930]; settings: top dose 10.24 µM
Protocol: as §1

[6] = compound: O=S(=O)(O)c1ccc2cc(N=Nc3cc(S(=O)(=O)O)c4cccnc4c3O)ccc2c1 [NSC-87877]; settings: top dose 16 µM; top dose inferred
Protocol: as §1

[7] = compound: O=C(Nc1cccc(Nc2ncc(Br)c(NCCc3cnc[nH]3)n2)c1)N1CCCC1 [BX-912]; settings: top dose 10.24 µM; top dose inferred
Protocol: as §1

[8] = compound: CCCC(=O)OCc1ccc(OC(=O)/C=C(C)/C=C/C=C(C)/C=C/C2=C(C)CCCC2(C)C)cc1 [VNLG/124]; settings: top dose 5.12 µM; top dose inferred
Protocol: as §1

[9] = compound: Cc1c(N)nc([C@H](CC(N)=O)NC[C@H](N)C(N)=O)nc1C(=O)N[C@H](C(=O)N[C@H](C)[C@@H](O)[C@H](C)C(=O)N[C@H](C(=O)NCCc1nc(-c2nc(C(=O)NCCC[S+](C)C)cs2)cs1)[C@@H](C)O)[C@@H](OC1OC(CO)C(O)C(O)C1OC1OC(CO)C(O)C(OC(N)=O)C1O)c1cnc[nH]1 [Bleomycin]
Protocol: as §1

[10] = top dose 50 µM, screen: GDSC drug entry 1378, top dose inferred
[11] = top dose 64 µM, screen: GDSC drug entry 190

Cell Line | AUC [1] | IC50 [1] | AUC [2] | IC50 [2] | AUC [3] | IC50 [3] | AUC [4] | IC50 [4] | AUC [5] | IC50 [5] | AUC [6] | IC50 [6] | AUC [7] | IC50 [7] | AUC [8] | IC50 [8] | AUC [9, 10] | IC50 [9, 10] | AUC [9, 11] | IC50 [9, 11]
KM-H2 (Hodgkin lymphoma, suspension) | 0.966 | > 0.2 µM | 0.545 | 0.0832 µM | 0.893 | 17.4 µM | 0.992 | > 5 µM | 0.971 | > 10.2 µM | 0.99 | > 16 µM | 0.931 | > 10.2 µM | 0.987 | > 5.12 µM | – | – | – | –
KASUMI-1 (acute myeloid leukaemia, suspension) | 0.912 | > 0.2 µM | – | – | 0.149 | 0.101 µM | 0.948 | > 5 µM | 0.144 | 0.0494 µM | 0.984 | > 16 µM | 0.254 | 0.125 µM | – | – | 0.95 | > 50 µM | – | –
RCC-MF (kidney, adherent) | 0.395 | 0.00589 µM | – | – | 0.739 | 7.54 µM | 0.97 | > 5 µM | 0.962 | > 10.2 µM | – | – | 0.9 | > 10.2 µM | 0.979 | > 5.12 µM | 0.774 | 25.7 µM | – | –
OACM5-1 (oesophagus, semi-adherent) | 0.938 | > 0.2 µM | – | – | 0.855 | 19.2 µM | 0.984 | > 5 µM | 0.986 | > 10.2 µM | – | – | 0.559 | 0.944 µM | 0.97 | > 5.12 µM | 0.966 | > 50 µM | – | –
OCI-AML2 (acute myeloid leukaemia, suspension) | 0.994 | > 0.2 µM | 0.314 | 0.0225 µM | 0.919 | 16.5 µM | 0.988 | > 5 µM | 0.932 | 9.62 µM | 0.99 | > 16 µM | 0.76 | 2.81 µM | – | – | 0.69 | 9.13 µM | 0.403 | 2.32 µM
EHEB (lymphoid neoplasm, suspension) | 0.877 | > 0.2 µM | 0.379 | 0.0255 µM | – | – | 0.715 | 1.7 µM | – | – | 0.963 | > 16 µM | – | – | – | – | 0.474 | 2.57 µM | 0.415 | 2.11 µM
MV-4-11 (leukaemia, suspension) | 0.365 | 0.00572 µM | – | – | – | – | 0.967 | > 5 µM | 0.81 | 4.23 µM | 0.983 | > 16 µM | 0.025 | < 0.04 µM | 0.622 | 0.649 µM | 0.654 | 7.66 µM | 0.122 | 0.352 µM
CHP-126 (neuroblastoma, suspension) | 0.499 | 0.0124 µM | 0.327 | 0.0208 µM | 0.832 | 13.2 µM | 0.986 | > 5 µM | 0.973 | > 10.2 µM | 0.983 | > 16 µM | – | – | 0.987 | > 5.12 µM | 0.42 | 1.88 µM | 0.348 | 1.5 µM
RPMI-8226 (myeloma, suspension) | 0.591 | 0.0214 µM | 0.435 | 0.0435 µM | – | – | 0.981 | > 5 µM | 0.965 | > 10.2 µM | 0.987 | > 16 µM | 0.928 | > 10.2 µM | 0.942 | > 5.12 µM | 0.967 | > 50 µM | 0.976 | > 64 µM
OCI-M1 (acute myeloid leukaemia, suspension) | 0.991 | > 0.2 µM | 0.321 | 0.0232 µM | – | – | 0.995 | > 5 µM | 0.992 | > 10.2 µM | 0.992 | > 16 µM | 0.428 | 0.426 µM | 0.832 | 2.26 µM | 0.966 | > 50 µM | 0.834 | 28.5 µM
Caov-4 (ovary, adherent) | 0.564 | 0.0203 µM | 0.599 | 0.136 µM | 0.896 | > 20 µM | 0.971 | > 5 µM | 0.953 | > 10.2 µM | 0.98 | > 16 µM | 0.868 | > 10.2 µM | – | – | 0.756 | 24.8 µM | 0.775 | 38.1 µM
KMS-11 (myeloma, suspension) | 0.934 | > 0.2 µM | – | – | 0.91 | > 20 µM | 0.97 | > 5 µM | 0.982 | > 10.2 µM | – | – | 0.929 | > 10.2 µM | 0.975 | > 5.12 µM | 0.951 | > 50 µM | – | –
COR-L321 (lung, suspension) | 0.988 | > 0.2 µM | – | – | 0.901 | > 20 µM | 0.972 | > 5 µM | 0.972 | > 10.2 µM | – | – | 0.541 | 0.829 µM | 0.968 | > 5.12 µM | 0.945 | > 50 µM | – | –
LN-405 (glioma, adherent) | 0.763 | 0.09 µM | 0.645 | 0.18 µM | 0.896 | > 20 µM | 0.957 | > 5 µM | 0.952 | > 10.2 µM | – | – | 0.95 | > 10.2 µM | 0.984 | > 5.12 µM | 0.894 | > 50 µM | 0.938 | > 64 µM
KARPAS-231 (B-cell leukaemia, suspension) | 0.348 | 0.00528 µM | 0.14 | 0.00732 µM | 0.689 | 3.66 µM | 0.992 | > 5 µM | 0.912 | 8.62 µM | 0.922 | 14.9 µM | – | – | – | – | 0.852 | 25.7 µM | 0.643 | 9.01 µM
SNU-61 (large intestine, adherent) | 0.949 | > 0.2 µM | – | – | 0.924 | > 20 µM | 0.981 | > 5 µM | 0.985 | > 10.2 µM | – | – | 0.953 | > 10.2 µM | 0.97 | > 5.12 µM | 0.975 | > 50 µM | – | –
GA-10 (Burkitt lymphoma, suspension) | 0.482 | 0.0112 µM | – | – | – | – | 0.97 | > 5 µM | – | – | 0.991 | > 16 µM | – | – | – | – | 0.836 | 26.2 µM | – | –

— the supplement of paper PMC4967469
